# Data from the supplement of paper PMC4604168 (melanoma cell lines).
# This is one part of the list. Most values come without repeats; read them as rough.
# Test system: IST-MEL1
# Assay: cell count relative to DMSO control; melanoma cells; higher = more viable cells
# Conditions: library dose: low library concentration; 72 h
# 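Also: cell number obtained by counting DAPI-stained nuclei in high-throughput microscope images with image analysis software, screen run in 1,536-well plates.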
row,Compound,cell count [%]
1,"COc1ccc(COc2ccc(Cc3cnc(N)nc3N)cc2OC)cc1 + Cc1cc(SCc2sc(-c3ccc(C(F)(F)F)c(F)c3)nc2C)ccc1OCC(=O)O [GW0742] (first compound 1 µM, partner dose 2 µM)",90.7
2,"Clc1ccc(Nc2nnc(Cc3ccncc3)c3ccccc23)cc1 [vatalanib] + C[As](C)SC[C@H](NC(=O)CC[C@H](N)C(=O)O)C(=O)NCC(=O)O [Darinaparsin] (first compound 2 µM, partner dose 0.4 µM)",102
3,"COc1ccc(COc2ccc(Cc3cnc(N)nc3N)cc2OC)cc1 + C/C(O)=C(\C#N)C(=O)Nc1cc(Br)ccc1Br [LFM-A13] (first compound 1 µM, partner dose 2 µM)",99.3
4,"COCC[n+]1c2c(n(Cc3cnccn3)c1C)C(=O)c1ccccc1C2=O + Cc1cc(SCc2sc(-c3ccc(C(F)(F)F)c(F)c3)nc2C)ccc1OCC(=O)O [GW0742] (first compound 0.0004 µM, partner dose 2 µM)",89
5,"O=C(CCCCCCC(=O)Nc1ccccc1)NO [vorinostat] + Cc1cc(SCc2sc(-c3ccc(C(F)(F)F)c(F)c3)nc2C)ccc1OCC(=O)O [GW0742] (first compound 0.08 µM, partner dose 2 µM)",92.1
6,"Cc1cc(Nc2cc(N3CCN(C)CC3)nc(Sc3ccc(NC(=O)C4CC4)cc3)n2)n[nH]1 [Tozasertib] + C[C@]12O[C@H](C[C@]1(O)CO)n1c3ccccc3c3c4c(c5c6ccccc6n2c5c31)CNC4=O [Lestaurtinib] (first compound 0.006 µM, partner dose 0.004 µM)",104
7,"O=C(O)c1ccc2c(c1)nc(Nc1cccc(Cl)c1)c1ccncc12 + C[As](C)SC[C@H](NC(=O)CC[C@H](N)C(=O)O)C(=O)NCC(=O)O [Darinaparsin] (first compound 0.4 µM, partner dose 0.4 µM)",95.7
8,"Cn1c(Nc2ccc(C(F)(F)F)cc2)nc2cc(Oc3ccnc(-c4ncc(C(F)(F)F)[nH]4)c3)ccc21 + Cc1cc(SCc2sc(-c3ccc(C(F)(F)F)c(F)c3)nc2C)ccc1OCC(=O)O [GW0742] (first compound 0.08 µM, partner dose 2 µM)",98.2
9,"C#Cc1cccc(Nc2ncnc3cc(OCCOC)c(OCCOC)cc23)c1 [erlotinib] + O=C(Oc1ccc([N+](=O)[O-])cc1)N1CCC(C(O)(c2ccc3c(c2)OCO3)c2ccc3c(c2)OCO3)CC1 [JZL184] (first compound 0.8 µM, partner dose 1 µM)",97.1
10,"Cc1cc(Nc2cc(N3CCN(C)CC3)nc(Sc3ccc(NC(=O)C4CC4)cc3)n2)n[nH]1 [Tozasertib] + Cn1cc(C2=C(c3cn(C4CCN(Cc5ccccn5)CC4)c4ccccc34)C(=O)NC2=O)c2ccccc21 [Enzastaurin] (first compound 0.006 µM, partner dose 0.8 µM)",97.8
11,"O=C(CCCCCCC(=O)Nc1ccccc1)NO [vorinostat] + C/C(O)=C(\C#N)C(=O)Nc1cc(Br)ccc1Br [LFM-A13] (first compound 0.08 µM, partner dose 2 µM)",102
12,"Oc1cc(-c2nc(-c3ccccc3)[nH]c2-c2ccncc2)ccc1Cl + C/C(O)=C(\C#N)C(=O)Nc1cc(Br)ccc1Br [LFM-A13] (first compound 0.2 µM, partner dose 2 µM)",101
13,"c1cc(-c2cnn3cc(-c4ccc(OCCN5CCCCC5)cc4)cnc23)ccn1 [Dorsomorphin] + O=C(Oc1ccc([N+](=O)[O-])cc1)N1CCC(C(O)(c2ccc3c(c2)OCO3)c2ccc3c(c2)OCO3)CC1 [JZL184] (first compound 0.4 µM, partner dose 1 µM)",109
14,"CN1CCN(c2ccc3nc(-c4c(N)c5c(F)cccc5[nH]c4=O)[nH]c3c2)CC1 [Dovitinib] + C[As](C)SC[C@H](NC(=O)CC[C@H](N)C(=O)O)C(=O)NCC(=O)O [Darinaparsin] (first compound 0.1 µM, partner dose 0.4 µM)",94.8
15,"Cc1cc(Nc2cc(N3CCN(C)CC3)nc(Sc3ccc(NC(=O)C4CC4)cc3)n2)n[nH]1 [Tozasertib] + C[As](C)SC[C@H](NC(=O)CC[C@H](N)C(=O)O)C(=O)NCC(=O)O [Darinaparsin] (first compound 0.006 µM, partner dose 0.4 µM)",88.5
